In PubChem BioAssay AID1645882 (National Center for Advancing Translational Sciences (NCATS), 2021):
“And” between values parts separate entries of the source, which are not always exact repeats. Equal values may be shown once. The campaign covered roughly 16,000 compounds. About 120 (0.75%) were called active. Another 4% or so got no clear call; they are omitted. Calls follow the shape of the dose curve; as a rule, active = well fitted inhibition curve with a large enough effect; inconclusive = small, poorly fitted or top-dose-only effect; inactive = no such curve, though single readings can be large or run the other way. The list shows a part of the results. A structure can be active in one record and inactive in another.

biological target: Rap guanine nucleotide exchange factor 3 (Homo sapiens) (UniProt O95398); assay: Validation qHTS for antagonist of cAMP-regulated guanine nucleotide exchange factor 3 (EPAC1); settings: EPAC1 Rap1B-BODIPY-GDP exchange, fluorescence; series mostly up to 150 µM; activity change, negative = inhibition: at the top concentration; also: nearly all actives have a fitted effect of over 75% in size
Sequence of UniProt O95398 (O95398 whole entry, looked up): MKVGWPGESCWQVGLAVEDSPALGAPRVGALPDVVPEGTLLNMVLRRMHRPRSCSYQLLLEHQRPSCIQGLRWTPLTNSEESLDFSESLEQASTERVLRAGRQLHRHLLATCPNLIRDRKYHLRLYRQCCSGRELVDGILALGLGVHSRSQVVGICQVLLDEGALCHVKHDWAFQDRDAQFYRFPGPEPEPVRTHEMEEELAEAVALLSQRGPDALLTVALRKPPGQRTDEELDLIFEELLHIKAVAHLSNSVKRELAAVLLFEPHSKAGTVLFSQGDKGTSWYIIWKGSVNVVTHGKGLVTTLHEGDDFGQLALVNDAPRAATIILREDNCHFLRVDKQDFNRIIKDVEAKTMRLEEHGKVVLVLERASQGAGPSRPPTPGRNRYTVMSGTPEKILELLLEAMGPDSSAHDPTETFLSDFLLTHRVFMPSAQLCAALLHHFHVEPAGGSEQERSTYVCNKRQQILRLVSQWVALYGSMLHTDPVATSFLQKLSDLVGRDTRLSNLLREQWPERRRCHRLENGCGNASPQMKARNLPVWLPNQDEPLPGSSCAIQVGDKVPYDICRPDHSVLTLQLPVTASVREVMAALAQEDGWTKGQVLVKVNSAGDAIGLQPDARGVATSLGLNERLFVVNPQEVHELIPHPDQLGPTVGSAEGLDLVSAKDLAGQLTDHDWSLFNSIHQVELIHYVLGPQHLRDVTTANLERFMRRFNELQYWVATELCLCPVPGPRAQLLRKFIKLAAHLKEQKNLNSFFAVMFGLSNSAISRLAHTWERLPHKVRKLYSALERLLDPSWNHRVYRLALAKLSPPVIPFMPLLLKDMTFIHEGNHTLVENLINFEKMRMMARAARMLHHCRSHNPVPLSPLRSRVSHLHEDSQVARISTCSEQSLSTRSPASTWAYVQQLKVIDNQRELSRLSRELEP
Outline: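 EPAC1 (100 nM) mixed with 250 nM RAP1B-BODIPY-GDP and 50 uM GDP; compounds in concentration series, 5 min at room temperature. Fluorescence (ex 480/em 540 nm) read every 5 min for 30 min; normalized to ATA control and DMSO.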
Potency is read from the fitted curve at half-maximal effect.

Activity change, negative = inhibition, inactive:
CC(=O)OC(C)C[N+](C)(C)C (stereo not given)
CCCCOc1ccc(CC(=O)NO)cc1
CN(C)c1ccc(/C=C2\C(=O)Nc3ccccc32)cc1 -9.59% [at 75.8 µM]
O=c1c(-c2ccc(F)cc2)nc2cnc(N3CCOCC3)nc2n1Cc1ccc(F)cc1 1.33%
CCCCC[C@H](CC(=O)NO)C(=O)N[C@H](C(=O)N1CCC[C@H]1CO)C(C)C 5.14% [at 75.8 µM]
Cc1nn(C)cc1CN1CCOc2ccc(C(C)(O)COc3ccccc3)cc2C1 (stereo not given) 2.73%
COc1ccccc1CN1CCOc2ccc(CN3CCC(Oc4cccnc4)CC3)cc2C1 9.49%
Cc1ccc(O)c([C@H](CCN(C(C)C)C(C)C)c2ccccc2)c1 11.2%
COc1cccc(Cn2c(=O)c(-c3ccc(F)cc3)nc3cnc(N4CCOCC4)nc32)c1 -10.1%
COc1ccc2[nH]cc(CCNc3ncncc3-c3ccc4c(c3)OCO4)c2c1 -3.46%
CNCCC(Oc1ccccc1C)c1ccccc1 (stereo not given) 13.4% [at 75.8 µM]
COCCNc1ccnc(-c2ccccc2CN(C)C)n1 30.5%
COc1cccc(Cn2c(=O)c(-c3cccc(F)c3)nc3cncnc32)c1 -7.05%
COc1cc2c(cc1OC)C1N(CC2)C(=O)CCC12C(=O)CCCC2=O (stereo not given) 6.53%
CS(=O)(=O)Nc1cccc(-c2nccc(Nc3ccc(F)cc3)n2)c1 -19.2%
Cc1cc(C)c2c(n1)NCCC2 25%
CCCCC1CN(CCNC(=O)c2ccccn2)Cc2ccccc2O1 (stereo not given) 5.49%
Cc1cccc(CNc2nc(-c3cccnc3)nc3ccccc23)c1 18.7%
CCCN1CCC(=O)N([C@H](CSc2ccccc2)Cc2ccccc2)CC1 14.1%
COc1ccccc1C1CN(CCNC(=O)c2ccc3c(c2)OCCO3)Cc2ccccc2O1 (stereo not given) -11.2%
O=C(O)c1cc(=O)c2c(OCC(O)COc3cccc4oc(C(=O)O)cc(=O)c34)cccc2o1
O=c1c(O)c(-c2ccccc2)oc2cc(O)cc(O)c12 6.31%
c1ccc(CNc2ncnc3ccc(-c4ccc5c(c4)OCO5)cc23)cc1 -19.8%
N=S(=O)(O)Cc1noc2ccccc12 0.453% [at 75.8 µM]
Cc1cnc(CNc2nc(-c3ccoc3)nc3ccccc23)cn1 7.6%
COc1ccnc(CS(=O)c2nc3cc(OC(F)F)ccc3[nH]2)c1OC (stereo not given) 35.8%
COc1ccc(/C=C\C(=O)Nc2ccccc2C(=O)O)cc1OC 7.89%
CC(=O)c1ccc2c(c1)N(CCCN1CCN(CCO)CC1)c1ccccc1S2 22.2%
COc1cc2oc(-c3ccccc3)cc(=O)c2cc1O 10.9%
O=C(Oc1ccccc1)N1CCC2(CC1)CCN(c1ncccn1)CC2 7.72%
Cc1c(C(=O)NCC2CC2)sc2ncnc(NCCN3CCCCC3)c12 14.8%
COc1cccc(C2(CC(=O)N3CCN(c4ccccc4O)CC3)CC(=O)N(C3CCCC3)C2=O)c1 (stereo not given) -0.23%
CC(=O)Oc1ccc(/C=C/C(=O)CC2OC(Oc3cc(OC(C)=O)c4c(c3)O[C@@H](c3ccc(OC(C)=O)cc3)CC4=O)C(OC(C)=O)C(OC(C)=O)C2OC(C)=O)cc1 (stereo not given in full) 10.7%
CNC(=O)[C@@H]1C[C@H](Sc2nc3ccccc3[nH]2)CN1Cc1ccccc1C(F)(F)F -8.68%
COC(=O)C1CCCCN1Cc1ccc2c(c1)CN(Cc1cnn(-c3ccccc3)c1)CCO2 (stereo not given) -0.462%
O=C1CCc2c(ccc3ccccc23)O1
COc1ccccc1C1CN(CCNC(=O)C2=CCCC2)Cc2ccccc2O1 (stereo not given) -11.4%
Cn1c(=O)c2c(ncn2C)n(C)c1=O
Cc1cnc(C)c(-c2ccc(F)c3c2OC(CNC(=O)Cc2c(C)[nH]c4ccccc24)C3)n1 (stereo not given) 8.76%
CN(C)C(=O)c1ccc(-c2cncnc2NCc2ccccc2)cc1 5.71%
COC(=O)C[C@H]1c2cc(F)ccc2S(=O)(=O)N1C1CC1 12.6%
O=C1c2ccccc2C(Cc2ccncc2)(Cc2ccncc2)c2ccccc21 11.6%
CN1CCCC(CN(C)C(=O)c2cnn(-c3nccc(-c4ccccc4C(F)(F)F)n3)c2C2CC2)C1 (stereo not given) 8.77%
O=C(c1csnn1)N1CCC[C@@]2(CCN(C(c3ccccc3)c3ccccc3)C2)C1 -2.17%
O=C(c1cccnc1)C1CCCN(Cc2ccc3c(c2)CN(C(=O)c2cn4ccccc4n2)CCO3)C1 (stereo not given) 4.39%
CN1C[C@H](C(=O)N[C@]2(C)O[C@@]3(O)[C@H]4CCCN4C(=O)[C@H](Cc4ccccc4)N3C2=O)C[C@H]2c3cccc4[nH]cc(c34)C[C@@H]21 -5.34%
O=C(/C=C/c1ccccc1)c1ccc(O)cc1O -11%
Cc1nc2cnc(Oc3cccc(Cl)c3)nc2n(C2CC2)c1=O -5.94%
CN1CC(=O)N2C(Cc3c([nH]c4ccccc34)[C@H]2c2ccc3c(c2)OCO3)C1=O (stereo not given in full) 19.7%

Potency, inactive and 12.6 µM (active):
Cc1nc(N=Nc2ccc(S(=O)(=O)O)cc2S(=O)(=O)O)c(COP(=O)(O)O)c(C=O)c1O
